# The inconclusive results got no clear call from the source; some entries with a clear call stand among them for comparison. For part of these data: Potencies beside an inconclusive call are fits to weak or partial responses and may not hold up. For part of these data: “Side channel” marks fits to a control or component signal instead of the main read-out. Calls of active or inactive are those of the source. Unless noted, calls follow the shape of the dose curve; as a rule, active = well fitted curve in the direction sought with a large enough effect; inconclusive = small, poorly fitted or top-dose-only effect, or another doubt; inactive = no such curve, though single readings can be large; an effect the other way counts as inactive or inconclusive.
# Legend:
# [1] = target: Cytochrome P450 2C9 (Homo sapiens) (UniProt P11712); assay: qHTS Assay for Inhibitors and Substrates of Cytochrome P450 2C9 (AID 883); conditions: recombinant CYP2C9, luciferin-H luminescence, 60 min; series mostly up to 57.1 µM; also: % is scaled to controls: 0 for no effect and ±100 for the full control effect; nearly all actives have a fitted effect of over 60% in size
# Method in brief: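 Turnover of Luciferin-H (100uM, KM) by 10nM human CYP2C9 was measured over 60 min at 37C with NADPH regeneration; inhibitors and some substrates reduce luminescence. Data normalized to sulphaphenazole 57uM.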
# [2] = target: Vitamin D3 receptor (Homo sapiens) (UniProt P11473); assay: qHTS assay for small molecule agonists of vitamin D receptor signaling (AID 588543; calls by dose curve; also: potency is read from the fitted curve at half-maximal effect); conditions: HEK293T VDR-UAS-bla, beta-lactamase ratio, 16 h; series mostly up to 76.8 µM
# Method in brief: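 GeneBLAzer VDR-UAS-bla HEK293T cells in 2% charcoal-stripped FBS medium were dosed with compound titrations for 16 h at 37 °C; CCF4 β-lactamase readout (405 nm ex, 460/530 nm em). EC50 and efficacy from Hill fits, normalized to 50 nM calcitriol (100%) and DMSO (0%).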
# [3] = Quantitative High-Throughput drug screen in 47 multiple myeloma cell lines against the NCATS MIPE library collection: EJM_DSMZ cell viability assay (AID 1918926; also: potency is read from the fitted curve at half-maximal effect; nearly all actives have a fitted effect of over 30% in size); conditions: EJM myeloma cell viability, CellTiter-Glo ATP, 48 h; series mostly up to 45.8 µM
# Method in brief: (§1)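 Primary qHTS used for cherry-picking: cells at 500/well, library compounds for 48 h (37C, 5% CO2), luminescent ATP assay.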
# [4] = Quantitative High-Throughput drug screen in 47 multiple myeloma cell lines against the NCATS MIPE library collection: Karpas25_ECACC cell viability assay (AID 1918968; also: potency is read from the fitted curve at half-maximal effect; nearly all actives have a fitted effect of over 35% in size); conditions: Karpas25 myeloma viability, CellTiter-Glo ATP, 48 h; series mostly up to 45.8 µM
# Method in brief: as §1
# [5] = target: ATP-dependent 6-phosphofructokinase (Trypanosoma brucei brucei) (UniProt O15648); assay: qHTS Assay to Find Inhibitors of T. brucei phosphofructokinase: hit validation (AID 492961); also: potency is read from the fitted curve at half-maximal effect; conditions: T. brucei PFK, ADP-Glo luminescence; series mostly up to 51.4 µM
# Method in brief: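 Measures ADP output of PFK (1.25 nM) at 0.1 mM ATP, 0.5 mM F6P, pH 8.0 TEA buffer with 5 mM MgCl2. No-enzyme wells define full inhibition; uninhibited enzyme wells define zero.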
# [6] = tested on: Zika virus NS2B-NS3 protease (linked); assay: 384 well plate NINDS AMC confirmatory qHTS for Zika virus inhibitors (AID 1347163); conditions: Recombinant NS2B-NS3 protease, Ac-VKTGKR-AMC fluorescence; series mostly up to 100 µM;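 also: linked protease at 5 30 or 60 nM final depending on run; fluorescence of AMC released from Ac-VKTGKR-AMC peptide cleaved by the protease; top concentration of the series differs between compounds; 0% = no-inhibitor control and -100% = no-enzyme control; nearly all actives have a fitted effect of over 50% in size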
# Method in brief: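 Linked NS2B-NS3 protease (final 5 nM, 30 nM or 60 nM) was preincubated with compounds (final up to 1 mM) for ~15 minutes. Ac-VKTGKR-AMC substrate (final 30 microM) then reacted for 25 minutes at room temperature in the dark. Fluorescence (ex 355/em 460 nm) was normalized to no-enzyme and no-inhibitor controls.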
# Tags tell the direction and shape of the fitted curve or compound fluorescence and quenching.
# Sequence of UniProt O15648 (O15648 whole entry, looked up): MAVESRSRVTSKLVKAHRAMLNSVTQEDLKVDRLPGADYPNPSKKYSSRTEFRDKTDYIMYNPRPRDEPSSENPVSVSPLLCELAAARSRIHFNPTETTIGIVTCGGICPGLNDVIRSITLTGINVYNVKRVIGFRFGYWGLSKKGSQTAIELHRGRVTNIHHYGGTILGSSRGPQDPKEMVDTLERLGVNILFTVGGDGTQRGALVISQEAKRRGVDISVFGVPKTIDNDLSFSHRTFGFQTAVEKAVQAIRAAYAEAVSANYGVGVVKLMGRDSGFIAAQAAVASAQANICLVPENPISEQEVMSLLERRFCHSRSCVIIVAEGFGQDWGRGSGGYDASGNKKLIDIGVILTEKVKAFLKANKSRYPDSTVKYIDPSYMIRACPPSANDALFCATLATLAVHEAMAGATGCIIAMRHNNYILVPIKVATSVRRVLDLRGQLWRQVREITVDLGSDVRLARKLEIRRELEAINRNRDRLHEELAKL
# Sequence of UniProt P11712 (P11712 whole entry, looked up): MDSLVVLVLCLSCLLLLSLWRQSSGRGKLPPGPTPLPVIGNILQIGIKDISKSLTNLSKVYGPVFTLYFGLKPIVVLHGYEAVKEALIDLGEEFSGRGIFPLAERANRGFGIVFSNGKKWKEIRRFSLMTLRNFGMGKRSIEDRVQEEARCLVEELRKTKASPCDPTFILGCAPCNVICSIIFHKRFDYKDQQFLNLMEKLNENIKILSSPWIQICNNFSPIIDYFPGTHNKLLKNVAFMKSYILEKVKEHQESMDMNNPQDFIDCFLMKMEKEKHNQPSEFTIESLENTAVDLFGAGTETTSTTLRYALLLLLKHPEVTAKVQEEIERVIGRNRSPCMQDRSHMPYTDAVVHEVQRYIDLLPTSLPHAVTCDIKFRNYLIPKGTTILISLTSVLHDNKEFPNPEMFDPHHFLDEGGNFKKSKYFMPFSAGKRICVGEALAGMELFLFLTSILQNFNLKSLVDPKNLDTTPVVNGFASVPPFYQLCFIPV
compound,measurement,setting,value
Cc1cccc(Nc2cc(Cl)nc(SCC(=O)O)n2)c1C,"activity change, negative = inhibition",[1],inactive: -10.9% [at 11.4 µM]
same,Potency,[2],"inconclusive: 7.9 nM [side channel, falling, full curve, poor fit]"
COC(=O)C=CC(=O)OC,Potency,[3],"inconclusive: 1050 nM [cytotoxic, partial curve]"
same,Potency,[4],active: 1480 nM
OC(C#CCN1CCCC1)(c1ccccc1)c1ccccc1,Potency,[5],"inconclusive: 39800 nM [falling, partial curve, poor fit]"
N#Cc1ccc(N2N=C3c4ccc(C(=O)O)cc4CC[C@@H]3[C@@H]2C2CCCC2)cc1Cl,Potency,[6],inactive

# — PubChem BioAssay (NCATS)
